Measured values as given in PubChem BioAssay (NCI).
“And” between values parts separate entries of the source, which are not always exact repeats. Equal entries are not always repeated.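 All cell lines were grown in 96-well plates and treated with compound for 48 hours. GI50 is the concentration that inhibits growth by half. The concentration for full growth arrest is given as TGI.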

Test system: NCI-H322M lung
Test: inhibition of tumour cell growth, NCI panel, 48 h

N#CC1(Cc2ccc(N)cc2)c2ccccc2C=CN1C(=O)c1ccccc1 (centres undefined) and COc1ccccc1C1C(C(=O)Nc2ccccc2)=C(C)NC(C)=C1C(=O)Nc1ccccc1 cannot be ordered by TGI: greater than 100 µM for the first, greater than 100 µM for the second.

Clc1ccc(C2N3CCCCC3[C@@H]3c4[nH]c5ccccc5c4CCN23)cc1 (some centres undefined) and CCN1CC2=C(NC(=S)NC2c2ccc(Cl)cc2)/C(=C/c2ccc(Cl)cc2)C1 (centres undefined) cannot be ordered by TGI: greater than 100 µM for the first, greater than 100 µM for the second.

Cc1ccc(S(=O)(=O)N(CCOc2ccc(/C(N)=N/Cl)cc2)CCOc2ccc(/C(N)=N\Cl)cc2)cc1 and Cc1ccc(CS/C(=C\c2ccc([N+](=O)[O-])cc2)C(=O)c2ccc(F)cc2)cc1 cannot be ordered by TGI: greater than 100 µM for the first, greater than 100 µM for the second.

Compared with CCCCC(=O)OCC1OC(n2cnc3c(=S)nc[nH]c32)C(OC(=O)CCCC)C1OC(=O)CCCC (centres undefined), NCC(=O)NS(=O)(=O)OC[C@H]1O[C@@H](n2cnc3c(N)ncnc32)[C@H](O)[C@@H]1O is lower in TGI: greater than 100 µM for the first, 4.52 µM for the second.

Compared with Cc1c(C(=O)N/N=C/c2ccc(Cl)cc2)nnn1-c1ccnc2c(C(F)(F)F)cccc12, O=C(O)CSc1nnc(COc2ccc(Cl)cc2)n1-c1ccccc1 is higher in TGI: 20.5 µM for the first, greater than 100 µM for the second.

COc1ccccc1N/C(=C\C(=O)C(=O)NC12CC3CC(CC(C3)C1)C2)c1ccccc1 and O=C(CN1c2ccccc2Sc2ccccc21)N1CCNCC1 cannot be ordered by TGI: greater than 10 µM for the first, greater than 100 µM for the second.

C[N+]1=C2[B-](C(C)(C)C)=[N+](C(C)(C)C)[B-]2(C(C)(C)C)[N+](C)=C2[B-](C(C)(C)C)=[N+](C(C)(C)C)[B-]21C(C)(C)C (centres undefined) and CC(C)(C)C1=C(Br)C(Br)(C(C)(C)C)OP1(=O)c1ccccc1 (centres undefined) cannot be ordered by TGI: greater than 100 µM for the first, greater than 100 µM for the second.

Going from COc1ccc2ccc3c(c2c1)CN1CCc2cc(OC)c(OC)cc2C1C3 (centres undefined) to COc1ccc(CNc2cc(OC)c(OC)c(OC)c2)cc1, the TGI falls from greater than 100 µM to 91.3 µM.

C[C@]12CC[C@H](O)CC1=CC[C@@H]1[C@@H]2CC[C@]2(C)C(c3cccnc3)=CC[C@@H]12 and CC1CCC2(C(=O)O)CCC3(C)C(=CCC4C5(C)CC(O)C(O)C(C)(CO)C5C(O)CC43C)C2C1C (centres undefined) cannot be ordered by TGI: greater than 100 µM for the first, greater than 100 µM for the second.

COC(=O)CC(C(C(=O)OC)C(=O)OC)N1C(=O)OCC1c1ccccc1 (centres undefined) and COC(=O)C(/C(=N/NC(N)=O)C(=O)Nc1ccc(C)cc1)c1nc2ccc([N+](=O)[O-])cc2[nH]c1=O (centres undefined) cannot be ordered by TGI: greater than 100 µM for the first, greater than 100 µM for the second.

CC1(O)CC(C(F)(F)F)(C(F)(F)F)OC1=O (centres undefined) and C[C@@]12[C@H]3CC[C@@H]1[C@H](O)C(=O)N2CC3 cannot be ordered by TGI: greater than 10 µM for the first, greater than 100 µM for the second.

CN(CCC#N)c1ccc(/C=C2\SC(=S)NC2=O)cc1 and CC1=C2C(=O)NN=C2CCN1c1ccc(Br)cc1 cannot be ordered by TGI: greater than 100 µM for the first, greater than 100 µM for the second.

N#CC(C(=N/O)/C(=N/O)C(C#N)c1ccc(Cl)cc1)c1ccc(Cl)cc1 (centres undefined) and CCCCN(CCCC)C(=O)C(=O)C(C#N)c1ccc(C)cc1 (centres undefined) cannot be ordered by TGI: greater than 100 µM for the first, greater than 100 µM for the second.

Compared with N=C1CSC2=NC3=C(CCC/C3=C\c3ccccc3)C(c3ccccc3)N12 (centres undefined), CN(C)CCNc1cc(-c2ccccc2)nc2ccccc12 is 1.5-fold higher in TGI: 22.6 µM for the first, 34.9 µM for the second.

COC(=O)CCCCN=Cc1c(O)c(O)c(C(C)C)c2cc(C)c(-c3c(C)cc4c(C(C)C)c(O)c(O)c(C=NCCCCC(=O)OC)c4c3O)c(O)c12 and CCCCCCCCCCCC(=O)CC(=O)c1c(O)cccc1O cannot be ordered by TGI: greater than 32.5 µM for the first, 45.2 µM for the second.

COC(=O)C(=O)C(C(=O)C=C(C)C)C(=O)C(=O)Nc1cc(C(F)(F)F)ccc1Cl (centres undefined) and Cc1ccc(C(=O)Nc2ccc(CP(=O)(O)O)cc2CP(=O)(O)O)cc1NC(=O)c1cccc(N)c1 cannot be ordered by TGI: greater than 100 µM for the first, greater than 100 µM for the second.

Going from O=C(CI)NC1Oc2ccccc2-c2oc(=O)c(-c3ccccc3)cc21 (centres undefined) to CCc1c(Oc2ccc(C(C)=O)cc2)c2ccccc2[nH]c1=O, the TGI rises from 36.7 µM to 55.1 µM (1.5-fold).

Going from O=C1C(Cl)=C(N2CCN(C3=C(Cl)C(=O)c4ccccc4C3=O)CC2)C(=O)c2ccccc21 to CN1C(=O)C2C(=O)N(Cc3ccccc3)CC(=O)N2c2cccnc21 (centres undefined), the TGI rises from 25.4 µM to greater than 100 µM.

Compared with COc1cc(/C=C/c2cc(/C=C/c3ccc(O)c(OC)c3)n(-c3ccccc3)n2)ccc1O, COc1ccc(C2=NN(C(=O)c3cc(OC)c(OC)c(OC)c3)C(c3ccc(C#N)cc3)C2)cc1OC (centres undefined) is 39-fold higher in TGI: 1.95 µM for the first, 76 µM for the second.

Compared with CCN(CC)CCc1c2c(nc3ccccc13)C(=O)c1cccnc1C2=O, COc1cccc2c(N)c3cccc(C(=O)NCCN(C)C)c3nc12 is 5.8-fold lower in TGI: 8.89 µM for the first, 1.52 µM for the second.

First: C#CCCCCC#Cc1ccccc1C(=O)OC
Second: N#Cc1ccc(C#Cc2ccccc2C#CCCCCO)cc1
The TGI of the first is higher: greater than 100 µM for the first, 27.7 µM for the second.

CCOC(=O)c1csc(NC(=O)CCN(CC)CC)n1 and CCCCNC1=C(C(=O)OCC)C(=O)CO1 cannot be ordered by TGI: greater than 100 µM for the first, greater than 100 µM for the second.

O=c1oc2ccc(F)cc2c(=O)n1-c1ccc(F)cc1F and O=C1OCc2c1cc1ccc(O)c(OC3OC(CO)C(O)C(O)C3O)c1c2-c1ccc2c(c1)OCO2 (centres undefined) cannot be ordered by TGI: greater than 100 µM for the first, greater than 100 µM for the second.

First: Nc1cc(CO)cc(Nc2nc3ccc(Cl)cc3c3[nH]c4ccccc4c23)c1
Second: Cn1cc2ccccc2c1-c1nc(N)nc(F)n1
The TGI of the first is lower: 22.1 µM for the first, greater than 100 µM for the second.

Cc1nnc2n1N=C(c1cc(F)c(Cl)cc1Cl)/C(=C/c1ccc(Cl)cc1)S2 and Cc1nc(-c2ccc([N+](=O)[O-])cc2)cn2c1nc1ccccc12 cannot be ordered by TGI: greater than 100 µM for the first, greater than 100 µM for the second.

CC12CC[C@@H](C(C)(C)O)C1[C@@H](O)CC1(C)C2CCC2[C@@]3(C)CC[C@H](O)C(C)(C)C3C(O)C[C@]21C (some centres undefined) and COc1ccc2cc1Oc1ccc(cc1)CC1c3cc(c(OC)cc3CCN1C)Oc1c3c(cc4c1C(C2)N(C)CC4)OCO3 (centres undefined) are within 1.5-fold of each other in TGI: 33.2 µM for the first, 27.1 µM for the second.

COC(=O)C(CCC#N)(CCC#N)C(=O)OC and CCOP(=O)(OCC)/C(C#N)=C/c1cnc(-c2ccccc2)[nH]1 cannot be ordered by TGI: greater than 100 µM for the first, greater than 100 µM for the second.

Cc1nn(CN2CCN(C)CC2)c(=S)n1/N=C/c1cccc2ccccc12 and CC(CN1c2ccccc2Sc2ccccc21)N(C)C (centres undefined) are within 1.5-fold of each other in TGI: 43.1 µM for the first, 36.2 µM for the second.

CCCCCCCCCCCCCCCCCCNc1ccn(C2OC(COP(=O)(O)OCC3OC(n4ccc(NC(=O)CCCCCCCCCCCCCCCCC)nc4=O)C(OC(C)=O)C3OC(C)=O)C(OC(C)=O)C2OC(C)=O)c(=O)n1 (centres undefined) and C=CCN1C(=O)/C(=C/c2ccccc2)N=C1SC1OC(COC(=O)c2ccccc2)C(OC(=O)c2ccccc2)C1OC(=O)c1ccccc1 (centres undefined) cannot be ordered by TGI: greater than 100 µM for the first, greater than 100 µM for the second.

COc1ccc(C2Oc3c(cc(O)c(OC)c3C)[C@@H]2C)cc1OC (some centres undefined) and COc1cc2c3c(n(C)c(=O)c2cc1OC)-c1cc2c(cc1/C3=C\CCCN1C(=O)c3ccccc3C1=O)OCO2 cannot be ordered by TGI: greater than 100 µM for the first, greater than 40 µM for the second.

Nc1ccn(C2O[C@H](CO)[C@@H](O)[C@@H]2O)c(=O)n1 (some centres undefined) and O=C(O)Cn1ccc(=O)c2ccc([N+](=O)[O-])cc21 cannot be ordered by TGI: greater than 100 µM for the first, greater than 100 µM for the second.

CC1=C(C(=O)Nc2ccc([N+](=O)[O-])cc2)C(c2ccc(N(C)C)cc2)C(C(=O)Nc2ccc([N+](=O)[O-])cc2)=C(C)N1 and O=C(O)CN(CCNC(=O)OCC1c2ccccc2-c2ccccc21)CCNC(=O)OCC1c2ccccc2-c2ccccc21 are within 1.5-fold of each other in TGI: 52.5 µM for the first, 69.3 µM for the second.

First: Cc1ccc(S(=O)(=O)N(CCOc2ccc(/C(N)=N/Cl)cc2)CCOc2ccc(/C(N)=N\Cl)cc2)cc1
Second: Cc1ccc(CS/C(=C\c2ccc([N+](=O)[O-])cc2)C(=O)c2ccc(F)cc2)cc1
The GI50 of the first is 2-fold higher: 67.9 µM for the first, 33.8 µM for the second.

Compared with CCCCC(=O)OCC1OC(n2cnc3c(=S)nc[nH]c32)C(OC(=O)CCCC)C1OC(=O)CCCC (centres undefined), NCC(=O)NS(=O)(=O)OC[C@H]1O[C@@H](n2cnc3c(N)ncnc32)[C@H](O)[C@@H]1O is 3.2-fold lower in GI50: 4.84 µM for the first, 1.52 µM for the second.

Going from Cc1c(C(=O)N/N=C/c2ccc(Cl)cc2)nnn1-c1ccnc2c(C(F)(F)F)cccc12 to CCc1c(Oc2ccc(C(C)=O)cc2)c2ccccc2[nH]c1=O, the GI50 rises from 4.44 µM to 15.3 µM (3.4-fold).

Going from C[C@]12CC[C@H](O)CC1=CC[C@@H]1[C@@H]2CC[C@]2(C)C(c3cccnc3)=CC[C@@H]12 to Cc1nn(CN2CCN(C)CC2)c(=S)n1/N=C/c1cccc2ccccc12, the GI50 falls from greater than 100 µM to 19.1 µM.

Compared with COC(=O)CCCCN=Cc1c(O)c(O)c(C(C)C)c2cc(C)c(-c3c(C)cc4c(C(C)C)c(O)c(O)c(C=NCCCCC(=O)OC)c4c3O)c(O)c12, COc1cc2c3c(n(C)c(=O)c2cc1OC)-c1cc2c(cc1/C3=C\CCCN1C(=O)c3ccccc3C1=O)OCO2 is higher in GI50: 1.3 µM for the first, greater than 40 µM for the second.

Going from O=C(CI)NC1Oc2ccccc2-c2oc(=O)c(-c3ccccc3)cc21 (centres undefined) to CN(C)CCNc1cc(-c2ccccc2)nc2ccccc12, the GI50 falls from 17 µM to 7.2 µM (2.4-fold).

First: COc1cc(/C=C/c2cc(/C=C/c3ccc(O)c(OC)c3)n(-c3ccccc3)n2)ccc1O
Second: COc1ccc(C2=NN(C(=O)c3cc(OC)c(OC)c(OC)c3)C(c3ccc(C#N)cc3)C2)cc1OC (centres undefined)
The GI50 of the first is 12-fold lower: 0.492 µM for the first, 6.12 µM for the second.

Compared with N#Cc1ccc(C#Cc2ccccc2C#CCCCCO)cc1, O=c1oc2ccc(F)cc2c(=O)n1-c1ccc(F)cc1F is 4.2-fold lower in GI50: 14.1 µM for the first, 3.36 µM for the second.

COc1cccc(-c2cc(=O)c3cc(N(C)C)ccc3[nH]2)c1 was tested, and the TGI was 8.51 µM and 47.2 µM.
With CC(=O)OCC1OC(OC(C)(C)CC/C=C(\C)[C@@H]2C/C=C(\C)CC/C=C(\C)CC2)C(O)C(O)C1OC(C)=O (some centres undefined) the TGI was > 100 µM and 40.9 µM.
With CCOC(=O)/C=C(/C(=O)OCC)n1cc(Cl)c(=O)n(CC(=O)OCC)c1=O the TGI was > 25 µM and 35.4 µM.

For CC(=O)OCC1OC(OC(C)(C)CC/C=C(\C)[C@@H]2C/C=C(\C)CC/C=C(\C)CC2)C(O)C(O)C1OC(C)=O (some centres undefined), the GI50 was > 100 µM and 19.6 µM.
